Patent US20250333515A1 (VOR BIOPHARMA, published 2025)
Values belong to the binder of their own block, whether it stands above or below them.

Columns and labels:
[1] = molecular target: T1, CLL-1 on the surface of CLL-1-positive AML cell lines (HL-60 WT, U937) (human, UniProt Q5QGZ9 1-265); assay: flow cytometry, HL-60 WT, 200 nM; secondary only 5600
T1 construct: whole, on cells; also called HL-60 WT cells; U937 cells
T1 sequence (looked up): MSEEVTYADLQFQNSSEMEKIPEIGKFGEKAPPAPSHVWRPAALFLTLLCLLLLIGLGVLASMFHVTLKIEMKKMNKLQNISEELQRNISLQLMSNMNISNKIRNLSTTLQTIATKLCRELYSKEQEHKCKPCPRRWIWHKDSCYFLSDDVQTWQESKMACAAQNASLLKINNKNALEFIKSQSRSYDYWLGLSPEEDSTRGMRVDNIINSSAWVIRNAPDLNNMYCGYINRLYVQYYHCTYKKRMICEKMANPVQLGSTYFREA
Description: HL60 WT, U937, or HL-60 CLL-1 knockout (KO) control cells were counted, washed in PBS and mixed with 1 ml of Fixable Viability dye eFluor 780 (diluted at 1:1000 in PBS) then incubated at room temperature for 10 minutes to distinguish Live/Dead cells. Subsequently the cells were washed once with FACS Buffer (PBS with 2% FBS) and incubated with human TruStain FcX™ (Fc block diluted at 1:10 in FACS buffer) at room temperature for 5 minutes. Fc blocked cells were stained with 50 μL of the primary CLL-1 antibody (at 200 nM concentrations) and incubated at 4° C. for 30 minutes in the dark. Cells were subsequently stained with 100 μL of secondary antibody (AF488 Rabbit anti-FLAG-tag diluted at 1:1000) incubated at 4° C. for 30 minutes in the dark. Cells were washed and flow cytometric analysis was performed using flow cytometry and data analysis was performed using FlowJo.

[2] = molecular target: T2, biotinylated recombinant CLL-1 protein (UniProt Q5QGZ9 65-265, limits assumed, biotinylated (site not stated)); assay: ELISA; biotinylated CLL-1 on neutravidin plate, FLAG-tagged binder, anti-FLAG HRP
T2 construct: also called CLEC12A
T2 sequence (looked up): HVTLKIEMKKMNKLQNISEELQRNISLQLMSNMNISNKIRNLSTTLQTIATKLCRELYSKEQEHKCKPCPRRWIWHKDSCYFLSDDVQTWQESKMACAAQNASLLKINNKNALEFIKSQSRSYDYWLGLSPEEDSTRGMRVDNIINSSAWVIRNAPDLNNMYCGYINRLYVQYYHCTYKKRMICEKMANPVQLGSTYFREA
Description: Dose-depending binding activities were analyzed by ELISA. COSTAR® microtiter plates were coated with 1 μg/mL neutravidin protein. Following washing, neutravidin-coated wells were seeded with 100 nM of biotinylated recombinant CLL-1 protein. Following washing, purified FLAG-tagged CLL-1 antibody binders were added to the wells and subsequently detected by mouse anti-FLAG tag HRP conjugate (Sigma).

[3] = molecular target: T1, CLL-1 on the surface of CLL-1-positive …; assay: multi-point flow cytometry on HL-60 WT cells, FLAG-tagged binder, anti-FLAG AlexaFluor 488
Description: Target cell staining was assessed relative to control samples comprising cells stained with secondary antibodies only (see FIG. 6). Multi-point FACS via flow cytometry was performed to assess dose-depending binding of CLL-1 antibody binders to the cell surface of HL-60 WT cells. Un-fixed, un-permeabilized cells were incubated with various concentrations of purified FLAG-tagged anti-CLL-1 antibody clones and cell-surface binding was detected by subsequent incubation in the presence of rabbit anti-FLAG tag antibody AlexaFluor 488-conjugate antibody (R&D Systems).

Geometric Mean : B530-H [1]: 15600
EC50 [2]: 1.2 nM
EC50 [3]: 0.4 nM
B1: Anti-CLL-1 Binder Clone 5 (scFv)
scFv: [no letters for about 100 residues]GGGGSGGGGSGGGGSQVQLVESGGGVVQPGRSLRLSCAASGFTFSSYGMHWVRQAPGKGLEWVAFISHDGSNKYYADSVKGRSTISRDNSKSTLFLQMNSLRDEDTAVYFCAREGQLTTSWDFFDYWGHGTLVTVSS
notes: scFv (VL-linker-VH); not shown: FLAG tag

Geometric Mean : B530-H [1]: 20500
EC50 [2]: 1.9 nM
EC50 [3]: 0.7 nM
B2: Anti-CLL-1 Binder Clone 39 (scFv)
scFv: [no letters for about 100 residues]GGGGSGGGGSGGGGSQVQLVQSGAEVKKPGASVKVSCKASGYTFTGYYMHWVRQAPGQGLEWMGWMNPSSGNTGYAHEFQGRVTMTRNTSTGTAYMELSGLRSEDTAVYYCARGDTGDSFDYWGQGTLVTVSS
notes: as for B1
